According to the supplement of paper PMC11417369:
The other results are listed elsewhere or left out.

system: PfHDP1 homeodomain (GST-tagged); experiment: gcPBM binding intensity (ln(normalized median fluorescence intensity)); higher = stronger DNA binding
In short: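 Each value is the highest Masliner-normalised natural-log median intensity across replicate spots of either orientation of a probe. The probes were primer-extended double-stranded 36-bp intergenic genomic sequences on an Agilent 4 × 180k array, alongside negative controls, exposed for 1 h to GST-tagged P. falciparum DNA-binding domains expressed in E. coli. Bound protein was picked up with Alexa488 anti-GST antibody and scanned at 488 nm.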

| Sequence | gcPBM binding intensity (ln) |
| --- | --- |
| GAAAATTCTTAAGGCACACACATATATAATATATAC [CACACA_site569] | 6.66 |
| AATTTAACCCATTTTATAATTATTACCACTATATAT [TGCATGCA_negctrl_site452] | 6.82 |
| CAAATACATGTGTAAAGTACATATTAATAAGTCTTT [XGTACX_site6342] | 6.43 |
| AAGAAAAAATAAACATGTACATAAATATATATATAT [XGTACX_site304] | 9.01 |
| ATTTAATTTATAAAAACACACACAGGTAAAAAGGTG [CACACA_site8306] | 7.32 |
| ATTTTTTTTTTTATGTGTACATATATTTTTTTAATT [XGTACX_site7921] | 7.04 |
| AATAATAGAAAAAGGTGTACTTATAAACATATACAC [XGTACX_site6921] | 6.34 |
| ATATATTTTTTTTCTTCACACACATGAATTATATAT [CACACA_site9053] | 6.88 |
| ATATATATATATATATGTACATATTATATATGAACG [XGTACX_site1585] | 9.29 |
| GTAATTATTATTAATAGTACACACTATGGCATTTCA [XGTACX_site5192] | 6.41 |
| TACTGTGATAGCACCACACACGCAAAAGTGAGTATA [CACACA_site1109] | 6.66 |
| TATATTTAGTAAAAAGGTACCATTCTTATTTATATT [CACACA_negctrl_site1165] | 6.04 |
| TATATTAATAGACACACACACATATTTATATTTATA [CACACA_site6859] | 6.73 |
| TTTCAGCCAAACGATAAACTACGACACTTGAACGAA [CACACA_negctrl_site1747] | 6.22 |
| TATATATATATATATTGTACTAATTGTGCAAATGAG [XGTACX_site682] | 10.9 |
| TAAGAAAAAAAATAATGTACATATGTATTTGAGAAA [XGTACX_site3569] | 6.44 |
| GAAATTTTTAAATACAGTACACACATGGGTTTAAAT [XGTACX_site6124] | 6.65 |
| ATACTTCAATCTATTTGTACATATTTTTTAAAACCA [XGTACX_site2328] | 6.89 |
| ATAAAGCCATACAATACACACATTTGACATGTCCGT [CACACA_site7523] | 6.97 |

| Sequence | gcPBM binding intensity (ln) |
| --- | --- |
| AATAATAAAAAATATACACACATATATAAATAAATA [CACACA_site6164] | 6.35 |
| TGCTACTTATAAATAGAACACACATAAGTGTATTTG [CACACA_site9253] | 6.3 |
| AAGAAAAAAAAAAAAAAAAAAAAAAAAAAGGAAAAA [GTGCAC_negctrl_site174] | 5.84 |
| AAAAAAAAAAAAAAAAAAAAAAAAAAATATATATAT [CACACA_negctrl_site271] | 8.36 |
| TATATGGAGAGATATGCACACTGTATGAATGCCCCC [CACACA_site8853] | 9.19 |
| TATTTATACATAGGTGGTACTACTTTAAACAAAAAA [XGTACX_site5062] | 6.36 |
| AAATAAATAATATTCACACATAAAAAAAATGGAGTT [CACACA_site4525] | 6.43 |
| TATTTACACAAAATAAAATATATTATATATATATAT [TGCATGCA_negctrl_site381] | 8.72 |
| TTGCACAGATTAATCAAAAATTTTAAACCAAATATA [XGTACX_negctrl_site38] | 6.77 |
| AGAATAGAATAAAAAACACACATTTACAACATTATT [CACACA_site3894] | 6.52 |
| ATAAAAATAAAATGGACACACATATATACCTATTTG [CACACA_site5761] | 6.35 |
| TGATATTTTATTATTAAAATATATACATATATATAT [CACACA_negctrl_site1456] | 8.14 |
| AAGAAAAAAAAAAAAAAAGATACTTTTTTAAAACTA [TGCATGCA_negctrl_site13] | 5.95 |
| GTGCAATATTTATTTTGTACATATTTATCAATAAAC [XGTACX_site8297] | 7.29 |
| TTATATTTTTACAAGAGTACATATATATATATATAT [XGTACX_site5383] | 9.54 |
| ATTAAATATATTAAATGTACATAATATATATATATA [XGTACX_site5032] | 8.75 |
| TTTATTTGATGAACATGTACAAAAAAACAAAGAACA [XGTACX_site823] | 6.7 |
| TCAAACCAGTTGATGTGTACACATATAGTAATAATT [XGTACX_site6014] | 7.25 |
| CATACACCCCAACACACACACACACCCATATATAAT [CACACA_site8097] | 7.24 |

| Sequence | gcPBM binding intensity (ln) |
| --- | --- |
| AAAAAAAAAAAAAAAAGTACATATATTATATATATA [XGTACX_site2983] | 7.66 |
| TGAAAAAAGAAAAATACACACATATAATATAATATA [CACACA_site2255] | 6.58 |
| TTATATAAGATATTTCGTACACATTCAAAAATTATG [XGTACX_site7375] | 6.36 |
| AATAAAATATAAGGGGGTACGGAGAAAGGATACTAT [XGTACX_site7733] | 6.91 |
| ATATATATTATTGAATGTACATAATTATTTAATAGT [XGTACX_site4971] | 6.95 |
| ATATATTCACGTTAATGTACACATAATAAATTATAT [XGTACX_site5481] | 6.72 |
| GTATTTAGATGATTAACACACATATGTGTATTAATA [CACACA_site6733] | 6.88 |
| TATTCACTGATATGTTGTACATAAAAAAAATTAAAT [XGTACX_site6128] | 6.58 |
| AATTATATTGGTTGTAGTACTAAAAGTAAGTTAATG [XGTACX_site33] | 6.49 |
| CACGCACGCACATACACACACATACACATATAAATA [CACACA_site6907] | 8.84 |
| ATATTTAAAAATATAGTGCAATTATTCTAATGTGTT | 8.89 |
| ATATTTCATTAATGAACACACAAAGAGGTATATAAA [CACACA_site1519] | 6.86 |
| AGCTCTCAAAATTATTCACACGTGTCCTGTTATATA [CACACA_site5415] | 7.13 |
| AAATAAAAGGTTGAGAGTACATTTTTGTGTATGTAT [XGTACX_site5547] | 6.49 |
| ATATATTATTTTAAATGTACTCATAATAGAAATGTC [XGTACX_site40] | 6.15 |
| ATATAAAGAAAAGGAACACACAAATATATATATATA [CACACA_site463] | 9.12 |
| CACACAGGTAAAAAGGTGCAGTTGAAATATTCCTCA [GTGCAC_site9730] | 6.65 |
| TGTTTATTTAATAATATTTTTTTTTTTATTATATTA [XGTACX_negctrl_site56] | 6.2 |
